# Results: the supplement of paper PMC12217912
# The other results are listed elsewhere or left out. The full chains were built here from the parent and the listed change. Values near 0.05 are background.
# B1: TEV protease; numbered along this chain (parent)
# chain: MGESLFKGPRDYNPISSSICHLTNESDGHTTSLYGIGFGPFIITNKHLFRRNNGTLVVQSLHGVFKVKDTTTLQQHLVDGRDMIIIRMPKDFPPFPQKLKFREPQREERICLVTTNFQTKSMSSMVSDTSCTFPSGDGIFWKHWIQTKDGQCGSPLVSTRDGFIVGIHSASNFTNTNNYFTSVPKNFMELLTNQEAQQWVSGWRLNADSVLWGGHKVFMVKPEEPFQPVKEATQL
# Variants of: B1
# Test: raw area under fraction-flipped curve 0-4 h after induction (AUC4h, not background-subtracted), DNA-recorder readout of cleavage of the substrate (dimensionless); higher = more cleavage of the substrate by the protease variant
# Settings: temperature: 34 °C; time window: 0-4 h after rhamnose induction
# Method: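 In vivo DNA recorder in E. coli TOP10(DE3) ΔrhaA at 34 °C. Each TEVp single-site mutant (parent TEVp 0) is paired with a single-site variant of the 7-mer TEVs (canonical ENLYFQ|S). The substrate sits between flexible linkers in a Bxb1-sfGFP-TEVs-SsrA fusion, so cleavage stabilises Bxb1 and speeds flipping of a recombination array, read by NGS. The value is the raw area under the fraction-flipped curve over 0-4 h after rhamnose induction (AUC4h), with ≥20 reads per time point. It is not background-subtracted; inactive controls average about 0.047.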
# 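Also: Bxb1 expression induced with 0.2% (w/v) L-rhamnose at OD600 near 0.5, cultures sampled hourly, flipped fraction per protease–substrate barcode pair counted by paired-end Illumina sequencing.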
Variant,area with substrate CNLYFQS,area with substrate DNLYFQS,area with substrate FNLYFQS,area with substrate GNLYFQS,area with substrate HNLYFQS,area with substrate INLYFQS,area with substrate KNLYFQS,area with substrate LNLYFQS,area with substrate MNLYFQS,area with substrate NNLYFQS,area with substrate PNLYFQS,area with substrate QNLYFQS,area with substrate RNLYFQS,area with substrate SNLYFQS,area with substrate TNLYFQS,area with substrate WNLYFQS,area with substrate YNLYFQS,area with substrate VNLYFQS
MGESLFKGPRDYNPISSSICHLTNESDGHTTSLYGIGFGPFIITNKHLFRRNNGTLVVQSLHGVFKVKDTTTLQQHLVDGRDMIIIRMPKDFPPFPQKLKFREPQREERICLVTTNFQTKSMSSMVSDTSCTFPSGDGIFWKHWIQTKDGQCGSQLVSTRDGFIVGIHSASNFTNTNNYFTSVPKNFMELLTNQEAQQWVSGWRLNADSVLWGGHKVFMVKPEEPFQPVKEATQL [P155Q],0.05,0.0533,0.0553,0.0465,0.0701,0.0428,0.0608,0.0541,0.0469,0.0469,0.053,0.0351,0.0396,0.0562,0.0547,0.0414,0.0505,
MGESLFKGPRDYNPISSSICHLTNESDGHTTSLYGIGFGPFIITNKHLFRRNNGTLVVQSLHGVFKVKDTTTLQQHLVDGRDMIIIRMPKDFPPFPQKLKFREPQREERICLVTTNFQTKSMSSMVSDTSCTFPSGDGIFWKHWIQTKDGQCGSPLVSTRDGFIVGIVSASNFTNTNNYFTSVPKNFMELLTNQEAQQWVSGWRLNADSVLWGGHKVFMVKPEEPFQPVKEATQL [H168V],0.0595,,,,0.0738,,0.0674,0.0758,0.0467,0.0571,0.0626,0.0516,0.0435,,0.0546,0.0614,0.0588,
MGESLFKGPRDYNPISSSICHLTNESDGHTTSLYGIGFGPFIITNKHLFRRNNGTLVVQSLHGVFKVKDTTTLQQHLVDGRDMIIIRMPKDFPPFPQKLKFREPQREERICLVTTNFQTKSMSSMVSDTSCTFPSGDGIFWKHWIQTKDGQCGSPLVSTRDGFIVGIRSASNFTNTNNYFTSVPKNFMELLTNQEAQQWVSGWRLNADSVLWGGHKVFMVKPEEPFQPVKEATQL [H168R],0.0598,,,,0.0503,0.0448,,0.0599,,,0.0514,,,0.0513,0.063,0.0538,0.0748,
MGESLFKGPRDYNPISSSICHLTNESDGHTTSLYGIGFGPFIITNKHLFRRNNGTLVVQSLHGVFKVKDTTTLQQHLVDGRDMIIIRMPKDFPPFPQKLKFREPQREERICLVTTNFQTKSMSSMVSDTSCTFPSGDGIFWKHWIQTKDGQCGSPLVSTRDGFIVGITSASNFTNTNNYFTSVPKNFMELLTNQEAQQWVSGWRLNADSVLWGGHKVFMVKPEEPFQPVKEATQL [H168T],0.0563,,0.0602,0.0634,0.0582,,0.0592,0.0637,0.0605,0.0537,0.0751,,0.0336,,0.0652,0.0591,,
MGESLFKGPRDYNPISSSICHLTNESDGHTTSLYGIGFGPFIITNKHLFRRNNGTLVVQSLHGVFKVKDTTTLQQHLVDGRDMIIIRMPKDFPPFPQKLKFREPQREERICLVTTNFQTKSMSSMVSDTSCTFPSGDGIFWKHWIQTKDGQCGSPLVSTRDGFIVGIHSASNFTNTNNYFTSVAKNFMELLTNQEAQQWVSGWRLNADSVLWGGHKVFMVKPEEPFQPVKEATQL [P184A],0.0595,0.0667,0.0387,0.0614,0.0543,0.0731,0.0602,0.0681,0.0499,,0.0536,0.0735,,0.0602,0.0876,0.0778,0.0757,0.0645
MGESLFKGPRDYNPISSSICHLTNESDGHTTSLYGIGFGPFIITNKHLFRRNNGTLVVQSLHGVFKVKDTTTLQQHLVDGRDMIIIRMPKDFPPFPQKLKFREPQREERICLVTTNFQTKSMSSMVSDTSCTFPSGDGIFWKHWIQTKDGQCGSPLVSTRDGFIVGIHSASNFTNPNNYFTSVPKNFMELLTNQEAQQWVSGWRLNADSVLWGGHKVFMVKPEEPFQPVKEATQL [T176P],0.066,,,,0.0803,,,0.0701,,0.0395,0.0713,,0.0615,0.064,0.0666,0.0632,0.054,
MGESLFKGPRDYNPISSSICHLTNESDGHTTSLYGIGFGPFIITNKHLFRRNNGTLVVQSLHGVFKVKDTTTLQQHLVDGRDMIIIRMPKDFPPFPQKLKFREPQREERICLVTTNFQTKSMSSMVSDTSCTFPSGDGIFWKHWIQTKDGQCGSPLVSTRDGFIVGIHSASNFTNGNNYFTSVPKNFMELLTNQEAQQWVSGWRLNADSVLWGGHKVFMVKPEEPFQPVKEATQL [T176G],0.046,,0.0611,,0.0547,,0.0704,0.0541,,,0.0601,,,,,0.0574,0.0592,0.0604
MGESLFKGPRDYNPISSSICHLTNESDGHTTSLYGIGFGPFIITNKHLFRRNNGTLVVQSLHGVFKVKDTTTLQQHLVDGRDMIIIRMPKDFPPFPQKLKFREPQREERICLVTTNFQTKSMSSMVSDTSCTFPSGDGIFWKHWIQTKDGQCGSPLVSCRDGFIVGIHSASNFTNTNNYFTSVPKNFMELLTNQEAQQWVSGWRLNADSVLWGGHKVFMVKPEEPFQPVKEATQL [T159C],0.0629,,,,,0.0424,,,,,,,,,,0.039,,
MGESLFKGPRDYNPISSSICHLTNESDGHTTSLYGIGFGPFIITNKHLFRRNNGTLVVQSLHGVFKVKDTTTLQQHLVDGRDMIIIRMPKDFPPFPQKLKFREPQREERICLVTTNFQTKSMSSMVSDTSCTFPSGDGIFWKHWIQTKDGQCGSPLVSTRDGFIVGDHSASNFTNTNNYFTSVPKNFMELLTNQEAQQWVSGWRLNADSVLWGGHKVFMVKPEEPFQPVKEATQL [I167D],0.04,0.0508,0.0527,0.0456,0.0457,0.0582,0.0504,0.0562,,,,,,,,0.0406,,
MGESLFKGPRDYNPISSSICHLTNESDGHTTSLYGIGFGPFIITNKHLFRRNNGTLVVQSLHGVFKVKDTTTLQQHLVDGRDMIIIRMPKDFPPFPQKLKFREPQREERICLVTTNFQTKSMSSMVSDTSCTFPSGDGIFWKHWIQTKDGQCGSPLGSTRDGFIVGIHSASNFTNTNNYFTSVPKNFMELLTNQEAQQWVSGWRLNADSVLWGGHKVFMVKPEEPFQPVKEATQL [V157G],0.0759,0.0473,0.0503,,0.0529,,0.0619,,,0.0869,0.0491,,,0.0474,0.0551,0.0435,,
